PubChem BioAssay AID485344 (National Center for Advancing Translational Sciences (NCATS), 2010)
The campaign covered roughly 340,000 compounds. About 6,900 (2%) were called active. No stated cut-off is given here; in the data, active means inhibition above about 30%; inactive means below that, where a call was filed. This is a selection; strong and weak results do not stand in their true shares. Entries without a call were filed so in the source.

molecular target: D(2) dopamine receptor (Homo sapiens) (UniProt P14416); experiment: HTS Assay for Allosteric Antagonists of the Human D2 Dopamine Receptor: Primary Screen for Antagonists; settings: HEK293 TREx D2 cells, calcium flux, dopamine EC80; at 10 µM; stronger effect = higher value; further: 0% is about no effect
Summary of the method: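 Measurement of antagonist activity uses fluorescent calcium dye in inducible HEK293 T-REx D2 cells: 10 s baseline, compound addition with 180 s read, EC80 dopamine addition with a further 180 s read.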

UniProt P14416, sequence (P14416 whole entry, looked up): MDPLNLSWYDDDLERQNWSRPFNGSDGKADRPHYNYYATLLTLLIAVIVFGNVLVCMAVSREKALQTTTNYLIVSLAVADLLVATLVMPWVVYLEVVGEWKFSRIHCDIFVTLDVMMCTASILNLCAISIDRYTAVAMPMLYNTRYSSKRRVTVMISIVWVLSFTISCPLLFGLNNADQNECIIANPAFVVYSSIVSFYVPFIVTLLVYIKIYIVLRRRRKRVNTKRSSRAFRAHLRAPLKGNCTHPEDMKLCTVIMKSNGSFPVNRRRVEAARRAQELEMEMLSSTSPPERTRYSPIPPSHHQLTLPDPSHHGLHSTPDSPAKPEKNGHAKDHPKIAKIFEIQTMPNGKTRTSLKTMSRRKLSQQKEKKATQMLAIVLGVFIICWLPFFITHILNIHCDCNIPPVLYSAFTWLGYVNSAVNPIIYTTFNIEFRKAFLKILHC

Row | Structure (SMILES) | inhibition
1 | Cc1ccc(NC(=O)/C(C#N)=C\c2ccc(Cl)cc2Cl)cc1C | -0.425%
2 | CCOc1ccccc1N1CC(c2nc3ccccc3n2CCOc2ccc(C(C)(C)C)cc2)CC1=O (centres undefined) | 12%
3 | CCN(c1cc(C)cc(C)c1)S(=O)(=O)c1nnc(NC(=O)c2cccc(F)c2)s1 | 5.28%
4 | CCCOc1ccc(C2C(=O)N(C3CCCCCC3)CC(=O)N2CCCOCC)cc1OC (centres undefined) | 19%
5 | CC1Cc2ccccc2N1C(=O)CN1CCN(Cc2ccccc2)CC1 (centres undefined) | active: 41%
6 | CCOc1ccccc1N(C)C(=O)Cn1nc(Cc2cccnc2)c2ccccc2c1=O | -19.1%
7 | COC(=O)CSc1nnc2n(-c3ccccc3)c(=O)c3c4c(sc3n12)COC(C(C)C)C4 (centres undefined) | 14.8%
8 | COc1ccc2nc(NC(=O)C3CC(=O)N(c4ccccc4)C3)sc2c1 (centres undefined) | active: 31.2%
9 | O=C(/C=C/c1ccccc1)N1CCN(Cc2cc(=O)n3nc(-c4ccccc4)sc3n2)CC1 | 9.38%
10 | CCC(=O)N1CCc2cc(S(=O)(=O)N(C)c3cccc(C)c3)ccc21 | 9.37%
11 | O=C(Nc1nc(-c2ccc(Br)cc2)ns1)c1ccccc1F | 5.39%
12 | O=S(=O)(Nc1cccc(-c2ccc(N3CCOCC3)nn2)c1)c1ccc(F)cc1F | -7.25%
13 | Cc1cccc(N2CCN(C(=O)C3CCN(S(=O)(=O)c4ccc5c(c4)oc(=O)n5C)CC3)CC2)c1C | 0.358%
14 | COc1ccccc1N1CCN(CCCCOc2c(OC)cccc2OC)CC1 | active: 78.4%
15 | COC(=O)CCN(C(=O)c1c(C)oc2ncnc(N3CCOCC3)c12)c1ccccc1 | 15.4%
16 | O=c1c2c3c(sc2n(Cc2cc(=O)n4ccccc4n2)c(=O)n1-c1ccc(Cl)cc1)CCC3 | -27.9%
17 | Cc1cc(C)c2oc(C(=O)Nc3ccc(S(=O)(=O)N(C)c4ccccc4)cc3)cc(=O)c2c1 | -3.98%
18 | Cc1ccc(C)c(CN2C(=O)c3ccccc3S(=O)c3ccc(C(=O)N(C)Cc4ccccc4)cc32)c1 (centres undefined) | -1.19%
19 | Cc1ccc(-n2ncc(C(=O)N3CCC(c4ccccc4)C3)c2C2CCN(C(=O)OC(C)(C)C)CC2)cc1 (centres undefined) | 6.75%
20 | CCCCOc1ccc(CNC(=O)c2ccc(NC(=O)N3CCSc4ncccc43)cc2)cc1 | 3.88%
21 | CCOc1ccc2nc(N3CCC(C(=O)Nc4c(C)cccc4C)CC3)sc2c1 | -0.182%
22 | Cc1ccc(S(=O)(=O)Nc2cc3c(cc2Cl)n(C)c(=O)c(=O)n3C)cc1 | -1.99%
23 | Cc1ccc(C)c(N2CCN(C(=O)c3cc4c(=O)n(Cc5cccs5)ccc4nc3C)CC2)c1 | 9.21%
24 | CCOC(=O)c1c(SCC(=O)Nc2nc(C)cs2)nc(=O)[nH]c1C | active: 32%

Row | Structure (SMILES) | inhibition
25 | Cc1coc2cc3oc(=O)c(CC(=O)NCc4ccccc4)c(C)c3cc12 | -19.7%
26 | CC(=O)N1CCCc2cc(S(=O)(=O)N3CCCC(C(=O)Nc4ccc(C)c(C)c4)C3)ccc21 (centres undefined) | 4.82%
27 | CCOc1ccccc1NC(=O)c1cc(S(=O)(=O)NC2CCCC2)ccc1F | -11.5%
28 | COc1ccccc1NC(=O)Cn1c(=O)n(Cc2cccs2)c(=O)c2cccnc21 | -7.43%
29 | O=C(Cn1cc(SCc2ccccc2F)c2ccccc21)N1CCCCCC1 | 10.5%
30 | CCN(CC)c1ccc2cc(-c3nc(-c4ccc(Cl)cc4Cl)cs3)c(=O)oc2c1 | -4.48%
31 | O=C(CCc1nc(-c2ccccc2)no1)Nc1cccnc1 | active: 57.9%
32 | CCOC(=O)c1ccc(Nc2nc3nonc3nc2Nc2cccc(C)c2C)cc1 | -6.24%
33 | Cc1nc(-c2ccccc2)sc1-c1ccc(SCC(=O)NCc2ccccc2)nn1 | 10.2%
34 | CCCCCn1c(=O)[nH]c2cc(C(=O)N3CCN(c4cc(Cl)ccc4C)CC3)ccc2c1=O | 0.498%
35 | CCOc1ccc(CCn2c3c(c(=O)[nH]c2=O)C(NC(=O)c2ccccc2)(C(F)(F)F)C(=O)N3)cc1OCC (centres undefined) | 8.89%
36 | CCOC(=O)c1c(S(=O)(=O)NCC(=O)Nc2cc(C)ccc2OC)c(C)n(C)c1C | 3.07%
37 | Cc1ccccc1C(=O)OCc1cc(=O)n2nc(C3CC3)sc2n1 | -0.136%
38 | COc1ccc(NC(=O)CSc2nc3ccccc3nc2Cc2ccc(C)cc2)cc1Cl | -20.3%
39 | CCOc1ccc(C(=O)c2cn(CC(=O)Nc3ccc4c(c3)OCCO4)c3ccc(OC)cc3c2=O)cc1 | 11.5%
40 | CCCc1nn2c(=O)cc(COC(=O)c3cccs3)nc2s1 | 4.82%
41 | Cc1ccc(CNC(=O)C(=O)NCC(c2cccnc2)N2CCN(c3ccc(F)cc3)CC2)cc1 (centres undefined) | -23.9%
42 | O=C(NCc1ccccc1)c1cc2sccc2n1Cc1ccc(F)cc1 | 14.2%
43 | Cn1c(=O)c2c(nc(Oc3ccc(F)cc3)n2Cc2ccc(F)cc2)n(C)c1=O | -9.6%
44 | COc1ccccc1NC(=O)c1sc2nc(C)c(C(=O)Nc3ccc(C)cc3C)c(-c3ccc(Br)cc3)c2c1N | 0.0728%
45 | Cc1ccccc1CNC(=O)Cn1ccc2cc(S(=O)(=O)N3CCCCC3)ccc21 | 6.03%
46 | CC(=O)c1ccc(NC(=O)c2ccc3c(c2)nnn3C2CCCC2)cc1 | 9.55%
47 | CCOc1ccc(C(=O)CSc2nc3cc(C(=O)NC4CCCC4)ccc3c(=O)n2CC2CCCO2)cc1 (centres undefined) | -8.82%
48 | Cc1cccc(C(=O)Nc2ccc(C(=O)OCc3cc(=O)n4c5c(sc4n3)CCCC5)cc2)c1 | -1.33%

Row | Structure (SMILES) | inhibition
49 | Cc1ccc(C)c(NC(=O)c2nc(S(C)(=O)=O)ncc2N(Cc2ccc(C(C)(C)C)cc2)Cc2ccco2)c1 | -19%
50 | Cc1cccc(NC(=O)Cn2cc(C(=O)C3CCCCC3)c3ccccc32)c1C | 9.69%
51 | COc1ccccc1C(=O)N1CCCCC1CCN1CCOCC1 (centres undefined) | 0.8%
52 | O=C(Nc1ccc(-c2nc3cc(NC(=O)c4ccccc4F)ccc3o2)cc1)c1ccccc1F | 6.45%
53 | N#Cc1ccccc1NC(=O)CSc1ncn[nH]1 | 1.33%
54 | COc1cc2c(-c3ccccc3O)nc3c(c(C)nn3-c3ccccc3)c2cc1OC | 1.37%
55 | COc1ccc(C(CNC(=O)C(C)(C)Oc2ccc(Cl)cc2)N2CCCCC2)cc1 (centres undefined) | active: 86.1%
56 | COc1cccc(CN2C(=O)c3ccccc3Sc3ccc(C(=O)NCCc4ccc(C)cc4)cc32)c1 | 4.82%
57 | COC(=O)C(CC(C)C)N1CCC(=O)c2ccccc2S1(=O)=O (centres undefined) | active: 51.6%
58 | COc1ccccc1C(=O)NCc1nnnn1-c1ccc(C)c(C)c1 | 1.5%
59 | COc1ccc(-c2csc(-c3nc(-c4ccc(Br)s4)cs3)n2)cc1F | -9.25%
60 | CCC1CCCCN1CCCNC(=O)c1c(O)nc2ccccn2c1=O (centres undefined) | 7.32%
61 | CCCC1=Nc2cc(C(=O)NCCc3ccc(OCC)cc3)ccc2Sc2ccccc21 | -4.98%
62 | Cc1ccc(-c2nc3c(C)cccn3c2Nc2ccccc2C)s1 | 6.02%
63 | CC1CCCN(c2nc3c(S(=O)(=O)c4ccc(C(C)C)cc4)nnn3c3ccsc23)C1 (centres undefined) | 1.66%
64 | CCOc1ccccc1N1CCN(CC(O)COCc2cccs2)CC1 (centres undefined) | active: 67.7%
65 | COc1ccc(C2=C(C)C(=O)N(Cc3ccc(C(=O)Nc4cccc(F)c4)cc3)S2(=O)=O)cc1 | 5.63%
66 | Cc1c(Cl)cccc1NC(=O)C1CCCN(c2nnc(-n3c(C)ccc3C)s2)C1 (centres undefined) | -3.74%
67 | CCN(CCCNC(=O)c1ccc(Sc2ccc(F)cc2)c(NC(C)=O)c1)c1ccccc1 | -14%
68 | O=C(NCC(c1ccc2c(c1)OCO2)N1CCN(c2ccccc2)CC1)C(=O)Nc1cccc(F)c1 (centres undefined) | 17.5%
69 | Cc1ccc(CSC2=Nc3ccccc3C3=NC(CCC(=O)NCc4cccs4)C(=O)N23)cc1 (centres undefined) | -12.6%
70 | CCOc1ccc(CNc2ccc(N3CCN(Cc4ccccc4)CC3)cc2)cc1 | active: 59%
71 | CCN(CC)C(=O)CSc1nc2cc3c(cc2c(=O)n1CCCCCC(=O)NCc1ccc(OC)cc1)OCO3 | 7.79%
72 | COc1ccc(CNC(=O)Cn2c(=O)nc(-c3ccccc3F)c3cc(Cl)ccc32)cc1 | 6.27%

Row | Structure (SMILES) | inhibition
73 | O=C(CSc1cn(CC(=O)N2CCCCC2)c2ccccc12)NCc1ccc(F)cc1 | 1.86%
74 | CCCN(CCC)CCCNC(=O)C1CCN(c2nc3ccc(CC)cc3s2)CC1 | 1.65%
75 | Cc1ccc(NC(=O)Nc2ccc3nc(N4CCN(C)CC4)cc(C)c3c2)cc1F | 8.9%
76 | CCOc1cc(C2c3c(oc4cc(C)cc(C)c4c3=O)C(=O)N2CCO)ccc1O (centres undefined) | -3.01%
77 | N#C/C(=C\c1cccc(F)c1)c1nc(-c2cc3c(ccc4ccccc43)oc2=O)cs1 | 10.6%
78 | CSc1cccc(NC(=O)C2CCCN(C(=O)c3cnn(-c4ccc(F)cc4)c3-n3cccc3)C2)c1 (centres undefined) | -11.5%
79 | COc1ccc(S(=O)(=O)N(CC(=O)Nc2cc(C)ccc2OC)Cc2ccccc2)cc1 | -12.1%
80 | CCOc1ccccc1NS(=O)(=O)c1ccc2[nH]c3c(c2c1)CCCCC3 | -5.29%
81 | Cc1ccc(Cn2c(=O)n(-c3ccc(C)cc3)c(=O)c3c2c2cc(C)ccc2n3C)cc1 | -0.213%
82 | CCOc1ccc(CCNC(=O)c2cc3c(=O)n(C)c4ccccc4c3n2C)cc1OCC | 21.8%
83 | CCOc1ccccc1NC(=O)C(=O)NCCc1sc2nc(-c3ccc(OC)cc3)nn2c1C | 7.64%
84 | CCOc1ccc(CNC(=O)c2ccccc2NC(=O)c2nsc3ccccc23)cc1 | -14.4%
85 | Cc1ccc(NC(=O)NCCOCCn2c(=O)oc3ccccc32)cc1C | -6.62%
86 | Cc1c(Cl)cccc1NC(=O)N1CCOc2ccccc21 | 18.1%
87 | CC(C)(C)C(=O)NC(=S)NNC(=O)c1ccc(-c2ccccc2)cc1 | active: 63.6%
88 | COC(=O)c1sccc1S(=O)(=O)N1CCN(c2ccc(C)cc2C)CC1 | -8.47%
89 | N#CC1=C(N)N2C(=C(C#N)C1c1cccc(Br)c1)Nc1ccccc12 (centres undefined) | active: 39.4%
90 | Cc1ccc(OCC(=O)Nc2ccc3nc(SCC(=O)Nc4ccc(C)cc4C)sc3c2)cc1 | -0.582%
91 | CCCNC(=O)c1ccccc1NC(=O)c1nsc2ccccc12 | 1.36%
92 | COc1cccc(NC(=O)CSc2ncc3c(n2)-c2ccc(Cl)cc2N(C)S3(=O)=O)c1 | -9.95%
93 | CC(C)(C)c1ccc(C(=O)NC2(C(F)(F)F)NC(=O)N(CCc3ccccc3)C2=O)cc1 (centres undefined) | -5.54%
94 | CCc1ccc(OCC(=O)Nc2cc(-c3ccc(C)cc3)no2)cc1 | 7.06%
